Assay results as given in article PMC4336329 (PLoS ONE, 2015).
Out of some 310,000 compounds screened, about 2,200 (0.71%) showed an effect of 50% or more. Effects have a minus sign here. This is one part of the list.

Molecular target: human ether-à-go-go-related gene (hERG) potassium channel (human, UniProt Q12809)
Assay: primary screen, population patch clamp on CHO cells stably expressing hERG

Chain of human ether-à-go-go-related gene (hERG) potassium channel (Q12809 whole entry, looked up): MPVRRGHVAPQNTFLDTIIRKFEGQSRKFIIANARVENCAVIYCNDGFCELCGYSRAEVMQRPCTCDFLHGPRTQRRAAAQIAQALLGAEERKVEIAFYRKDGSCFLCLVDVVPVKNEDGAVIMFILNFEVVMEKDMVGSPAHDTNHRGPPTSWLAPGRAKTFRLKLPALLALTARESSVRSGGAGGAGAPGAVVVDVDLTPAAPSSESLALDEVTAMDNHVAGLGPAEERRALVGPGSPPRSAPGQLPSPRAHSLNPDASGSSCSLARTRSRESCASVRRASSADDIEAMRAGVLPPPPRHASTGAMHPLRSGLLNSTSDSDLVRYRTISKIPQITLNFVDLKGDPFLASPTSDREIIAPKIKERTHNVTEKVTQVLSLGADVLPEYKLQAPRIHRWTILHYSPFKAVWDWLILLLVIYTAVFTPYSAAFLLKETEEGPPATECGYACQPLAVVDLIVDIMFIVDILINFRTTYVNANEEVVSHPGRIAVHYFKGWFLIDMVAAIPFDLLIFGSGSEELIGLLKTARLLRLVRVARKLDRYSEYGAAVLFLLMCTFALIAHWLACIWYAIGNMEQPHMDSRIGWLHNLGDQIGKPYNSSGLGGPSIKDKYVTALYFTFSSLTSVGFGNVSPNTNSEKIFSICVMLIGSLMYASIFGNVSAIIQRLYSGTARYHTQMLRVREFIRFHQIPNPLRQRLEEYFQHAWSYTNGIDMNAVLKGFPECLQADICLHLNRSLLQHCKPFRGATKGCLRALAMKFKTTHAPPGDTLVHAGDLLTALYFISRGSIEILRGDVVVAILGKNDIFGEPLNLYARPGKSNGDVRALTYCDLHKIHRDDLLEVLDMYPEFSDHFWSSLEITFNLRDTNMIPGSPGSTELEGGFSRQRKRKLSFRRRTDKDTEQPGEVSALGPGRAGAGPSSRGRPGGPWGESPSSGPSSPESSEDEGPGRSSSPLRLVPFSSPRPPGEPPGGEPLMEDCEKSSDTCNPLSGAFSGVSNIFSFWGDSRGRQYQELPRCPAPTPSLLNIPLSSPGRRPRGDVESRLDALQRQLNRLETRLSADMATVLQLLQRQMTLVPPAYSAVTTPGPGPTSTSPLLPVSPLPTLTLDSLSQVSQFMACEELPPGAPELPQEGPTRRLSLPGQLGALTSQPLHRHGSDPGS

Row | SMILES | hERG current change (%, negative = inhibition) at 1uM
1 | COc1c2ccc(C(=O)NCCCCc3ccccc3)cc2nn1C | 4.98%
2 | O=P(O)(O)COc1ccccc1O | 11.2%
3 | CC12CCC(C(=O)N3CCOCC3)([C@H](Br)C1=O)C2(C)C (stereo partly shown) | 13.5%
4 | O=C(Nc1ccc2c(c1)C(=O)N(CC1CCCO1)C2=O)c1ccc(Cl)c(Cl)c1 (stereo not shown) | -14.9%
5 | CC1=CCC(C(=O)O)C(C(=O)NC2CCCCC2)C1 (stereo not shown) | 12.2%
6 | CCOc1ccccc1Oc1coc2cc(OC(=O)N(C)C)ccc2c1=O | 13.4%
7 | O=C(NCCN1CCOCC1)c1cc(Sc2cccc(Cl)c2)nc2ccccc12 | -20.6%
8 | CN(Cc1cccs1)C(=O)Cn1cnc2cc([N+](=O)[O-])ccc2c1=O | 16.1%
9 | O=C(Cc1cnc2ncnn2c1)N1CCc2c([nH]c3ccccc23)C1c1ccccn1 (stereo not shown) | 6.54%
10 | COc1cc(NC(=O)c2ccc3c(c2)OCCO3)ccc1NC(=O)c1cccs1 | 4.39%
11 | O=C(CN1CCN(c2ccccc2)CC1)Nc1ccc(OCc2ccccc2)cc1 | 13.4%
12 | Cc1cccc(N(Cc2ccccc2)C(=O)c2cccc(S(=O)(=O)N3CC(C)OC(C)C3)c2)c1 (stereo not shown) | -3.52%
13 | Cc1cccn2c(CN(C)CC3Cc4ccccc4O3)c(C(=O)N3CCCCC3)nc12 (stereo not shown) | 4.15%
14 | COc1ccc(NC(=O)C2=NNC(=O)CC2)cc1S(=O)(=O)N1CCCCC1 | 2.96%
15 | Cc1csc2nc(CNS(=O)(=O)N(C)C)cn12 | 4.85%
16 | Cc1cccc(C(=O)N/N=C/c2ccc[nH]2)c1 | 15.2%
17 | CC(C)c1ccc(C2CC(c3ccc(Br)cc3)=NN2C(N)=S)cc1 (stereo not shown) | 17.3%
18 | O=C(Nc1ccc(NC(=O)c2ccco2)cc1)c1ccco1 | 12.7%
19 | CC1(C)CCCC2=C1CC1C(=O)N(N)C(=O)C1C2 (stereo not shown) | 9.08%
20 | CSc1nc(N(C)C)nc(N(C)C#N)n1 | 18.4%
21 | O=C(c1ccccc1)N1CCCCC(Sc2nnnn2-c2ccccc2)C1=O (stereo not shown) | -3.02%
22 | CC(=O)Nc1ccc(Oc2ccccc2)cc1 | 8.93%
23 | Cc1sc(NC(=O)c2sc3nc4c(C)cccc4cc3c2N)c(C#N)c1C | 13.2%

Row | SMILES | hERG current change (%, negative = inhibition) at 1uM
24 | CC(NS(=O)(=O)c1ccccc1)C(=O)Nc1ccc(S(N)(=O)=O)cc1 (stereo not shown) | 9.55%
25 | CN1CCN(S(=O)(=O)c2ccc(NC(=O)c3ccc([N+](=O)[O-])cc3)cc2)CC1 | -5.24%
26 | COc1ccc(NC(=O)Nc2ccc3nccnc3c2)cc1 | 6.75%
27 | O=C(O)C(Cc1ccccc1-c1ccccc1)C(=O)O | 7.65%
28 | N#Cc1ccc(-c2nnnn2-c2ccc3c(c2)OCO3)cc1 | -1.99%
29 | Cc1cc(OCC(O)CN2CCc3ccccc3C2)ccc1Cl.Cl (stereo not shown) | 3.92%
30 | CCN1C(=O)N[C@H](c2ccccc2)C(C(C)=O)=C1C | 16.4%
31 | O=C(COC(=O)/C=C/c1ccc(S(=O)(=O)N2CCOCC2)cc1)NCc1ccc(F)cc1 | -2.79%
32 | O=C1CC(SCCc2nc3ccccc3[nH]2)C(=O)N1c1ccc(F)cc1 (stereo not shown) | 0.751%
33 | CN(C(=O)COC(=O)CNC(=O)C12CC3CC(CC(C3)C1)C2)C1CCS(=O)(=O)C1 (stereo not shown) | 12.1%
34 | Cc1cc(=O)[nH]c(SCc2cn3ccccc3n2)n1 | 9.55%
35 | CCOc1cc(NC(=O)C2CC2)c(OCC)cc1NC(=O)c1ccccc1OCC | -14.4%
36 | COC(=O)c1ccc(NC(=O)COC(=O)C2CC(=O)N(Cc3ccccc3)C2)cc1 (stereo not shown) | 3.54%
37 | C=CCSc1nc2ccccc2[nH]1 | 23.3%
38 | COc1ccc(OC)c(NC(=O)Cc2coc3ccc(C)cc23)c1 | -3.82%
39 | CCOC(=O)C1CCN(C(=O)COc2ccc(S(=O)(=O)NC(C)C)cc2)CC1 | -2.14%
40 | CCOc1ccc(CC(=O)NNC(=S)NC)cc1Br | 20.5%
41 | CCN(C(=O)CSc1ccc2ccccc2c1)C1CCS(=O)(=O)C1 (stereo not shown) | 4.61%
42 | Cc1nc2ccc([N+](=O)[O-])cc2[nH]1 | 17.6%
43 | Cc1[nH]nc2c1C(c1cccc(OC(=O)N3CCOCC3)c1)C(C#N)=C(N)O2 (stereo not shown) | 7.11%
44 | c1csc(Cc2nc(-c3ccc(-n4cccc4)cc3)no2)c1 | 7.82%
45 | CC1=C(C(=O)OCC2CCCO2)C(c2coc3ccccc3c2=O)C2=C(CC(C)(C)CC2=O)N1 (stereo not shown) | 1.42%
46 | NS(=O)(=O)c1ccc(Oc2ccc(S(N)(=O)=O)cc2)cc1 | 0.505%

Row | SMILES | hERG current change (%, negative = inhibition) at 1uM
47 | Cc1onc(-c2ccc(Cl)cc2)c1-c1ccnn1S(=O)(=O)c1ccc(Cl)cc1 | 7.92%
48 | Cc1cc(NC(=O)CCn2c(=O)sc3ccccc32)no1 | 0.274%
49 | c1nc2sc3c(c2c2nnnn12)CCC3 | 10.7%
50 | COCc1cc(/C=N\NC(=O)c2ccc(Cl)cc2)ccc1OC | 7.06%
51 | CC(=O)c1ccc(S(=O)(=O)NCc2cccnc2)cc1 | 12.2%
52 | CCOC(=O)C(Cc1ccc(OC)c([N+](=O)[O-])c1)NC(=O)CCC(=O)Nc1ccc(C)cc1 (stereo not shown) | -9.34%
53 | COc1ccccc1C1Nc2ccccc2NC2=C1C(=O)CC(C)(C)C2 (stereo not shown) | 16.4%
54 | CCC(=O)NNC(=O)CSc1nnc(-c2ccccc2)c(-c2ccccc2)n1 | 8.46%
55 | COc1ccc(N=c2sc3ccccc3n2C)cc1 | 13.1%
56 | CC(N=C(NC#N)Nc1ccncc1)C(C)(C)C.O (stereo not shown) | 6.22%
57 | Cc1ccc(S(=O)(=O)N2CCN(CC(=O)Nc3ccc(N4CCOCC4)cc3)CC2)cc1C | 5%
58 | CCn1ncc(Br)c1C(=O)Nc1ccc(Cl)cn1 | -6.08%
59 | N#Cc1ccc(Oc2cc(C(F)(F)F)nc(-c3ccccn3)n2)cc1 | 1.1%
60 | O=C(CN(CCc1ccccc1)S(=O)(=O)c1ccc(Cl)cc1)N/N=C/c1ccc2c(c1)OCO2 | -4.2%
61 | CN(C)S(=O)(=O)Oc1ccc(C(=O)Nc2cccc(Cl)c2)cc1 | 6.59%
62 | Cc1ccc(S(=O)(=O)Cn2nnnc2C(c2ccc(F)cc2)N2CCCCC2)cc1 (stereo not shown) | 4.62%
63 | Cc1ccc(Cl)c(NC(=O)CCl)c1Cl | -8.83%
64 | Cc1ccc(/C=c2/sc3nnc(-c4ccccc4Cl)n3c2=O)o1 | 1.11%
65 | O=C(OCc1ccccn1)C1CCN(C(=O)c2ccc(Cl)cc2)CC1 | 0.419%
66 | N#Cc1ccc(/C=C/C(=O)O)cc1 | 18.4%
67 | CC1(C)CC(NC(=S)NC2CC2)CC(C)(C)N1 | 9.45%
68 | Cc1cc(C)n(-c2nc3ccccc3c(=O)n2OCC(=O)Nc2c(C)cccc2C)n1 | 10.7%
69 | COc1ccc(CSc2nc(N3CCOCC3)c3c(c2C#N)CC(C)(C)OC3)cc1 | 6.49%

Row | SMILES | hERG current change (%, negative = inhibition) at 1uM
70 | CCN1CCN(Cc2ccc(OC(F)(F)F)cc2)CC1 | 0.634%
71 | COc1ccc(CCNC(=O)COc2nncc3ccccc23)cc1 | 1.36%
72 | Cc1[nH]n(-c2ccccc2)c(=O)c1/C=C1\C=NN=C1c1ccccc1 | 11.3%
73 | O=c1c2ccccc2nc(/C=C/c2cccc([N+](=O)[O-])c2)n1CCCO | -14.9%
74 | COC(=O)C1=C(c2cc3ccccc3o2)C[C@@H]2CC[C@H]1N2C(=O)NCc1ccccc1 | -8.24%
75 | CCOC(=O)c1cnn(-c2ccccc2)c1-n1cccc1 | 2.93%
76 | O=C(COC(=O)c1cc2ccccc2cc1O)Nc1cccnc1Cl | 6.46%
77 | CCc1cc2c(=O)oc(-c3ccc(F)cc3)nc2s1 | 15.2%
78 | CCOC(=O)c1ccc(N2C(=O)c3n[nH]c(C)c3C2c2cccnc2)cc1 (stereo not shown) | -0.0034%
79 | O=C(NCc1ccco1)c1ccc(Cn2c(=S)[nH]c3ccccc3c2=O)cc1 | 11.6%
80 | O=C(NNC(=O)C(Cl)Cl)c1cnn(-c2ccccc2)c1C(F)(F)F | 13.1%
81 | Brc1c(CSc2nc3ccccc3s2)nc2ncccn12 | -46.1%
82 | O=C(CSC1=NNC(c2ccccn2)S1)Nc1ccccc1 (stereo not shown) | 4.91%
83 | CCC(C)N(C(=O)c1csnn1)C(C(=O)NC(C)(C)C)c1ccccc1 (stereo not shown) | 7.07%
84 | CC1(C)CN(C(Cc2ccccc2)C(N)=O)C1=O (stereo not shown) | 14.8%
85 | Cc1c(C)c2c(OCC(=O)N3CCC(C(N)=O)CC3)cc3c(c2oc1=O)CCC(C)(C)O3 | -0.869%
86 | Cc1ccc(OCC(=O)Nc2ccc(N3CCN(C(=O)c4ccco4)CC3)cc2)c(C)c1 | 10.5%
87 | O=C(COC(=O)CC1CC2CCC1C2)Nc1c(F)cccc1F (stereo not shown) | 16.1%
88 | O=C(NC1CC2CCCC(C1)N2Cc1cccs1)N1CCOCC1 (stereo not shown) | 3.19%
89 | Cn1c(N)c(S(=O)(=O)N2CCN(c3cccc(Cl)c3)CC2)c(=O)n(C)c1=O | 13.4%
90 | CC1(C)CC(=O)C=C(N2CCCC2)C1 | 6.84%
91 | Cc1nc2ccccc2c(=O)n1/N=C/c1cn[nH]c1-c1ccccc1 | 7.97%
